{"source": "PubChem BioAssay (NCATS)", "key": {"[1]": {"assay": "qHTS of pediatric cancer cell lines to identify multiple opportunities for drug repurposing: Primary screen for SK-N-MC cells (AID 1347093)"}, "[2]": {"assay": "qHTS of pediatric cancer cell lines to identify multiple opportunities for drug repurposing: Primary screen for NB1643 cells (AID 1347099); also: nearly all actives have a fitted effect of over 50% in size"}, "[3]": {"assay": "qHTS of pediatric cancer cell lines to identify multiple opportunities for drug repurposing: Primary screen for LAN-5 cells (AID 1347100)", "how_it_was_run": "(§1)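 Cells (500-1,000/well) rested 5 h, then received compounds for 48 h; metabolically active cells were measured by CellTiter-Glo luminescence. Final concentrations spanned up to 46 µM (MIPE, 11-point) or 0.59 nM-46 µM (NPC, 8-point) in primary screens, 11-point in follow-ups.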"}, "[4]": {"assay": "qHTS of pediatric cancer cell lines to identify multiple opportunities for drug repurposing: Primary screen for OHS-50 cells (AID 1347103)", "how_it_was_run": "as §1"}, "[5]": {"assay": "Primary qHTS for inhibitors of nuclear receptor binding SET domain protein 2 (NSD2) in an RCH-ACV wild type WT cells (2C) (AID 1645877)", "details": "RCH-ACV NSD2 WT (2C) viability, CellTiter-Glo, 72 h"}, "[6]": {"assay": "qHTS of pediatric cancer cell lines to identify multiple opportunities for drug repurposing: Primary screen for DAOY cells (AID 1347090)", "how_it_was_run": "(§2)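 Cell viability, CellTiter-Glo luminescence; 500-1,000 cells/well, 8- or 11-point titration, 48 h compound exposure at 37 degrees C, 5% CO2. Controls: DMSO neutral, bortezomib 2.3 µM final as positive.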"}, "[7]": {"assay": "qHTS of pediatric cancer cell lines to identify multiple opportunities for drug repurposing: Primary screen for SJ-GBM2 cells (AID 1347091)", "how_it_was_run": "as §2"}, "[8]": {"assay": "qHTS of pediatric cancer cell lines to identify multiple opportunities for drug repurposing: Primary screen for A673 cells (AID 1347092)", "how_it_was_run": "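Luminescence from CellTiter-Glo, taken after 15 min at room temperature, served as the proxy for metabolically active cells following 48 h treatment. Both potency and efficacy were taken from curves fitted to the titration data.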"}, "[9]": {"assay": "qHTS of pediatric cancer cell lines to identify multiple opportunities for drug repurposing: Primary screen for BT-37 cells (AID 1347094)", "how_it_was_run": "(§3)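 ATP-based luminescence (CellTiter-Glo) quantifies viability after a 48-hour exposure. Compounds are dosed across 8 or 11 final concentrations; DMSO and 2.3 µM bortezomib serve as controls.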"}, "[10]": {"assay": "qHTS of pediatric cancer cell lines to identify multiple opportunities for drug repurposing: Primary screen for NB-EBc1 cells (AID 1347095)"}, "[11]": {"assay": "qHTS of pediatric cancer cell lines to identify multiple opportunities for drug repurposing: Primary screen for Saos-2 cells (AID 1347097)", "how_it_was_run": "as §3"}, "[12]": {"assay": "qHTS of pediatric cancer cell lines to identify multiple opportunities for drug repurposing: Primary screen for SK-N-SH cells (AID 1347098)", "how_it_was_run": "as §1"}, "[13]": {"assay": "qHTS of pediatric cancer cell lines to identify multiple opportunities for drug repurposing: Primary screen for BT-12 cells (AID 1347101)", "how_it_was_run": "as §1"}, "[14]": {"assay": "qHTS of pediatric cancer cell lines to identify multiple opportunities for drug repurposing: Primary screen for RD cells (AID 1347104)", "how_it_was_run": "as §3"}, "[15]": {"assay": "qHTS of pediatric cancer cell lines to identify multiple opportunities for drug repurposing: Primary screen for MG 63 (6-TG R) cells (AID 1347105)", "how_it_was_run": "as §3"}}, "note": "Records with an inconclusive call do not appear. Calls follow the shape of the dose curve; as a rule, active = well fitted curve in the direction sought with a large enough effect; inconclusive = small, poorly fitted or top-dose-only effect, or another doubt; inactive = no such curve, though single readings can be large; an effect the other way counts as inactive or inconclusive. For part of its entries the source gives two or more results. The other results are left out here. The source may hold further records. The values listed for one entry are repeated measurements (runs, samples, wells, individuals or studies). Where a structure was tested more than once in an assay, its records may differ in their call. Records carry a tag for their origin. Letters count within one entry. Potency is read from the fitted curve at half-maximal effect.", "data": [{"smiles": "O=C(NC(Cc1cc(=O)[nH]c2ccccc12)C(=O)O)c1ccc(Cl)cc1", "note": "(stereo unspecified)", "values": [{"measurement": "Potency", "setting": "[1]", "result": "inactive [sample A] and active: 23.5 µM [sample B]"}, {"measurement": "Potency", "setting": "[2]", "result": "inactive [sample A] and active: 9.35 µM [sample B]"}]}, {"smiles": "CN1CCC(=C2c3ccccc3CCc3sccc32)CC1", "values": [{"measurement": "Potency", "setting": "[2]", "result": "active: 13.2 µM [sample A] and inactive [sample B]"}]}, {"smiles": "CN(c1nccc(=O)[nH]1)C1CCN(c2nc3ccccc3n2Cc2ccc(F)cc2)CC1", "values": [{"measurement": "Potency", "setting": "[2]", "result": "active: 4.18 µM [sample A] and inactive [sample B]"}, {"measurement": "Potency", "setting": "[3]", "result": "active: 14.8 µM [sample A] and inactive [sample B]"}]}, {"smiles": "COCCCN1CCC(NC(=O)c2cc(Cl)c(N)c3c2OCC3)CC1", "values": [{"measurement": "Potency", "setting": "[4]", "result": "inactive [sample A] and active: 24.3 µM [sample B]"}]}, {"smiles": "Cc1nc(Nc2ncc(C(=O)Nc3c(C)cccc3Cl)s2)cc(N2CCN(CCO)CC2)n1", "values": [{"measurement": "Potency", "setting": "[5]", "result": "active: 2.7, 18.3, 58, 33.2 nM [separate samples]"}]}, {"smiles": "Cc1c(OCC(F)(F)F)ccnc1CS(=O)c1nc2ccccc2[nH]1", "note": "(stereo unspecified)", "values": [{"measurement": "Potency", "setting": "[1]", "result": "inactive [sample A] and active: 18.7 µM [sample B]"}]}, {"smiles": "O=C(NCC1CCCCN1)c1cc(OCC(F)(F)F)ccc1OCC(F)(F)F", "note": "(stereo unspecified)", "values": [{"measurement": "Potency", "setting": "[6]", "result": "active: 11.8 µM [sample A] and inactive [sample B]"}, {"measurement": "Potency", "setting": "[7]", "result": "active: 935 nM [sample A] and inactive [sample B]"}, {"measurement": "Potency", "setting": "[8]", "result": "active: 46.9 nM [sample A] and inactive [sample B]"}, {"measurement": "Potency", "setting": "[1]", "result": "active: 3.32 µM [sample A] and inactive [sample B]"}, {"measurement": "Potency", "setting": "[9]", "result": "active: 485 nM [sample A] and inactive [sample B]"}, {"measurement": "Potency", "setting": "[10]", "result": "active: 2.64 µM [sample A] and inactive [sample B]"}, {"measurement": "Potency", "setting": "[11]", "result": "active: 935 nM [sample A] and inactive [sample B]"}, {"measurement": "Potency", "setting": "[12]", "result": "active: 10.8 µM [sample A] and inactive [sample B]"}, {"measurement": "Potency", "setting": "[2]", "result": "active: 16.6 µM [sample A] and inactive [sample B]"}, {"measurement": "Potency", "setting": "[3]", "result": "active: 590 nM [sample A] and inactive [sample B]"}, {"measurement": "Potency", "setting": "[13]", "result": "active: 769 nM [sample A] and inactive [sample B]"}, {"measurement": "Potency", "setting": "[4]", "result": "active: 685 nM [sample A] and inactive [sample B]"}]}, {"smiles": "Cc1ccc(S(=O)(=O)NC(=O)NN2CC3CCCC3C2)cc1", "note": "(stereo unspecified)", "values": [{"measurement": "Potency", "setting": "[8]", "result": "inactive [sample A] and active: 23.5 µM [sample B]"}, {"measurement": "Potency", "setting": "[3]", "result": "inactive [sample A] and active: 23.5 µM [sample B]"}, {"measurement": "Potency", "setting": "[4]", "result": "inactive [sample A] and active: 21.7 µM [sample B]"}, {"measurement": "Potency", "setting": "[14]", "result": "inactive [sample A] and active: 33.2 µM [sample B]"}]}, {"smiles": "Cc1c(C(=O)NN2CCCCC2)nn(-c2ccc(Cl)cc2Cl)c1-c1ccc(Cl)cc1", "values": [{"measurement": "Potency", "setting": "[2]", "result": "active: 18.7 µM [sample A] and inactive [sample B]"}]}, {"smiles": "COC(=O)C1=C(C)NC(C)=C(C(=O)OC(C)C)C1c1cccc2nonc12", "note": "(stereo unspecified)", "values": [{"measurement": "Potency", "setting": "[6]", "result": "active: 23.5 µM [sample A] and inactive [sample B]"}, {"measurement": "Potency", "setting": "[8]", "result": "active: 14.8 µM [sample A] and inactive [sample B]"}, {"measurement": "Potency", "setting": "[12]", "result": "active: 15.2 µM [sample A] and inactive [sample B]"}, {"measurement": "Potency", "setting": "[2]", "result": "active: 9.35 µM [sample A] and inactive [sample B]"}, {"measurement": "Potency", "setting": "[15]", "result": "active: 23.5 µM [sample A] and inactive [sample B]"}]}, {"smiles": "Cc1nccn1CC1CCc2c(c3ccccc3n2C)C1=O", "note": "(stereo unspecified)", "values": [{"measurement": "Potency", "setting": "[2]", "result": "active: 16.6 µM [sample A] and inactive [sample B]"}]}, {"smiles": "c1ccc2[nH]c(-c3cscn3)nc2c1", "values": [{"measurement": "Potency", "setting": "[1]", "result": "inactive [sample A] and active: 8.33 µM [sample B]"}, {"measurement": "Potency", "setting": "[15]", "result": "inactive [sample A] and active: 14.8 µM [sample B]"}]}, {"smiles": "CCCCC(CC)COC(=O)C(C#N)=C(c1ccccc1)c1ccccc1", "note": "(stereo unspecified)", "values": [{"measurement": "Potency", "setting": "[12]", "result": "active: 5.41 µM [sample A] and inactive [sample B]"}, {"measurement": "Potency", "setting": "[2]", "result": "active: 10.5 µM [sample A] and inactive [sample B]"}, {"measurement": "Potency", "setting": "[14]", "result": "active: 26.4 µM [sample A] and inactive [sample B]"}]}]}
